From article doi:10.1101/2021.10.11.463904 (bioRxiv, 2021)

Molecular target: the molecule itself
Experiment: dynamic light scattering

B1: proIGF2 (natural protein)
chain: not shown
binding result: binds
